For one test, the target named is T1, S04071.
T1 sequence (peptide): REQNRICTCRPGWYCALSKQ
The experiment in a line: linear peptide ELISA with TNF competition. On the technique in general: An ELISA detects its analyte on a solid surface through an enzyme-linked reagent.

Chains of the proteins cited; added tags and fusions are not shown. Lines headed by an entry give the natural chain unless they say otherwise; changes in a name come on top.
UniProt P20333: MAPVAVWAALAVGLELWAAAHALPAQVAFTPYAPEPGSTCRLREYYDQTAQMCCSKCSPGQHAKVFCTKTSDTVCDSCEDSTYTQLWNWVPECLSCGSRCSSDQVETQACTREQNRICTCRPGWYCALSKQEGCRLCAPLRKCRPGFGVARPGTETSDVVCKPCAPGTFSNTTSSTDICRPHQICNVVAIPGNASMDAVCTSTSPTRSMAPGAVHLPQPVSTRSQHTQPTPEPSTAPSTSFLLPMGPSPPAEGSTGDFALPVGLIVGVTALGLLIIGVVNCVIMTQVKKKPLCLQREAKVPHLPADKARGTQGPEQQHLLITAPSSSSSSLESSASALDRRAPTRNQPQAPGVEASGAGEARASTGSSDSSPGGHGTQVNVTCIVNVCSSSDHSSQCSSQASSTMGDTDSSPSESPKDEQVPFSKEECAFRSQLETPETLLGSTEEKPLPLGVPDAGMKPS

The next test deals with T2, S04072.
T2 sequence (peptide): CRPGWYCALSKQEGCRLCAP
The experiment in a line: linear peptide ELISA with TNF competition.

Test [1] has as its target recombinant human TNFR2 (human) (UniProt P20333). The experiment in a line: SPR. (In SPR one partner is held on a chip, and binding of the other changes the refractive index at the surface.)
Another test deals with T3, S04079.
T3 sequence (peptide): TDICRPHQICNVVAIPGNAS
The experiment in a line: linear peptide ELISA.

The target in another test is T4, S04065.
T4 sequence (peptide): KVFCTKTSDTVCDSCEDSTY
The experiment in a line: linear peptide ELISA.

Another test has as its target T5, S04068.
T5 sequence (peptide): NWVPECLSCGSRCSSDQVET
The experiment in a line: linear peptide ELISA.

The next test addresses T6, S04078.
T6 sequence (peptide): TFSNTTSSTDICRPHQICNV
The experiment in a line: linear peptide ELISA.

A further test addresses T7, S04075.
T7 sequence (peptide): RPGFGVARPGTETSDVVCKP
The experiment in a line: linear peptide ELISA.

The target of a further test is T8, S04080.
T8 sequence (peptide): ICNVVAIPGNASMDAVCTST
The experiment in a line: linear peptide ELISA.

The next test concerns the target T9, S04077.
T9 sequence (peptide): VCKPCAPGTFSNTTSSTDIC
The experiment in a line: linear peptide ELISA.

The target of a further test is T10, S04069.
T10 sequence (peptide): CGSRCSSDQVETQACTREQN
The experiment in a line: linear peptide ELISA.

Another test addresses T11, S04076.
T11 sequence (peptide): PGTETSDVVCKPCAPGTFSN
The experiment in a line: linear peptide ELISA.

Another test concerns the target T12, S04070.
T12 sequence (peptide): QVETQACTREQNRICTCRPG
The experiment in a line: linear peptide ELISA.

Another test has as its target T13, S04066.
T13 sequence (peptide): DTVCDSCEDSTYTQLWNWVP
The experiment in a line: linear peptide ELISA.

The target of a further test is T14, S04064.
T14 sequence (peptide): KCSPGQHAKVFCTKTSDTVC
The experiment in a line: linear peptide ELISA.

For a further test, the target named is T15, S04081.
T15 sequence (peptide): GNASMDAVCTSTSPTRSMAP
The experiment in a line: linear peptide ELISA.

A further test deals with T16, S04062.
T16 sequence (peptide): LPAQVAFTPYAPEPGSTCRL
The experiment in a line: linear peptide ELISA.

The target of a further test is T17, S03931.
T17 sequence (peptide): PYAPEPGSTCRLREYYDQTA
The experiment in a line: linear peptide ELISA.

Another test deals with T18, S04063.
T18 sequence (peptide): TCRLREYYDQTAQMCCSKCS
The experiment in a line: linear peptide ELISA.

The target of a further test is T19, S04067.
T19 sequence (peptide): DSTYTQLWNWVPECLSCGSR
The experiment in a line: linear peptide ELISA.

Test [2] addresses recombinant human TNFR2 (human) (UniProt P20333). The experiment in a line: ELISA, linear peptide mapping with the full-length protein.

No constants are given. Whether binding was seen depends on the method and setting. Some binding calls cover weakened binding; strength is not graded here. Sequences can lack the tags named with a protein.

B1: antagonistic TNFR2 antibody TNFRAB1 (antibody, V domains shown)
VH: EVQLQESGGGLVKPGGSLKLSCAASGFTFSSYVMSWVRQTPEKRLEWVATISSGGSYTYYPDSVKGRFTISRDNAKNTLYLQMSSLRSEDTAMYYCARQRVDGYSSYWYFDVWGAGTAVTVSS
VL: DIVLTQSPAIMSASPGEKVTITCSASSSVYYMYWFQQKPGTSPKLWIYSTSNLASGVPVRFSGSGSGTSYSLTISRMEAEDAATYYCQQRRNYPYTFGGGTKLEIKR
Take B1: the binding entry is recorded as “binds” in the test with S04071; “binds” in the test with S04072; “binds” in test [1]; “no binding (tested: 0.1 µg/well)” with S04079; “no binding (tested: 0.1 µg/well)” with S04065; “no binding (tested: 0.1 µg/well)” with S04068. For the same molecule, the binding entry with S04078, with S04075, with S04080, in the test with S04077, with S04069 and with S04076 was “no binding (tested: 0.1 µg/well)” in each case. The binding result in the test with S04070, with S04066, in the test with S04064, with S04081, with S04062 and with S03931 was “no binding (tested: 0.1 µg/well)” in each case. The binding entry with S04063 is on record as “no binding (tested: 0.1 µg/well)”; with S04067, “no binding (tested: 0.1 µg/well)”; in [2], “binds”.

Values taken from US20240270860A1.
